Data on six sequences can be found in paper PMC4081100.

The list shows a part of the results, in another mix than the full data. For some of these results: At the low end of the ranking, values are background and their order means little. The list shows a part of the results. For some of these results: Construct or isoform of the protein are uncertain.

Common to all, as to assay: universal protein binding microarray (PBM)
What all share (conditions): transcription factors of Arabidopsis thaliana; high values mean tight binding; most listed sequences are background and not binding sites; double strand, one strand shown

For one experiment, the target named is T1, GST-ANAC092(1-176) (UniProt Q9FKA0).
T1 sequence: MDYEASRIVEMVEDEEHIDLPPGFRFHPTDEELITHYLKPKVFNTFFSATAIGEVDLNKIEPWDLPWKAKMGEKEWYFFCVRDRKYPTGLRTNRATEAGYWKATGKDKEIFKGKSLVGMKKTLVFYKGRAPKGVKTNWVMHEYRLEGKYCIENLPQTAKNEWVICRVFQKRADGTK

A further experiment has as its target GST-NTL6(1-168) (UniProt Q9SCK6).
UniProt Q9SCK6, sequence (Q9SCK6 1-168): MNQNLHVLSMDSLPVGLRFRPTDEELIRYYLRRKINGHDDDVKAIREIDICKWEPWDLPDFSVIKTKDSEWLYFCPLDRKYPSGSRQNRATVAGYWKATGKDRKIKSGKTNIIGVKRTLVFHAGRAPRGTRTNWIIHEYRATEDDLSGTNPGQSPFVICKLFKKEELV
In another experiment the target is T2, GST-ANAC019 NAC domain (UniProt Q9C932).
T2 sequence: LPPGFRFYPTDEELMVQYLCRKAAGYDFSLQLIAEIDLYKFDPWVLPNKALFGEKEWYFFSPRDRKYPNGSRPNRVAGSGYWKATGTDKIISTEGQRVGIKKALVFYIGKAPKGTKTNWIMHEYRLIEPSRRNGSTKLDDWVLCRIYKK

For the next experiment, the target named is T3, GST-ANAC055(1-171) (UniProt Q9LDY8).
T3 sequence: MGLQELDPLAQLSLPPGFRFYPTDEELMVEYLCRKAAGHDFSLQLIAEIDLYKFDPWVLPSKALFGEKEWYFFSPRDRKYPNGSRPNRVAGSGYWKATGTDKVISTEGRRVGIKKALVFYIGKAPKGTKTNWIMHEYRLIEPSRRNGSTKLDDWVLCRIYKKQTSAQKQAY

Another experiment addresses T4, GST-ATAF1 NAC domain (UniProt Q39013).
T4 sequence: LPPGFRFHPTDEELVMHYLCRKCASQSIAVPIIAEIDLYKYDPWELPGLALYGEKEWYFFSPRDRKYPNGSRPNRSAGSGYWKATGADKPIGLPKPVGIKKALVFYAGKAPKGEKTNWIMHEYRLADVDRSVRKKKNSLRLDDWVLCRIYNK

In experiment [1] the target is T5, GST-ANAC092(1-285) full length (UniProt Q9FKA0).
T5 sequence: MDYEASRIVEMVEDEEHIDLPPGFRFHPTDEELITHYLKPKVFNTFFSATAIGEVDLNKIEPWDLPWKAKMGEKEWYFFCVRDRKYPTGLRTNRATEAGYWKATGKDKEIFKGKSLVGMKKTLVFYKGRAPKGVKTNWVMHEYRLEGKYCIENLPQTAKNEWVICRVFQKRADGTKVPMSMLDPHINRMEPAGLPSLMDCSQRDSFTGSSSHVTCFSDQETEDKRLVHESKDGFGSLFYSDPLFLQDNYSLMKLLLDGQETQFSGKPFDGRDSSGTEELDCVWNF

The target of a further experiment is T6, GST-NAP(1-166) (UniProt O49255).
T6 sequence: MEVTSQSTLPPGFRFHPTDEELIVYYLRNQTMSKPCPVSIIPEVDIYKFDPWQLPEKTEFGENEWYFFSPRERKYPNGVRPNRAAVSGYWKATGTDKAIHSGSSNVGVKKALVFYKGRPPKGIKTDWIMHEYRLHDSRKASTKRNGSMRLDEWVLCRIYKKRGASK

The next experiment deals with T7, GST-NST2(1-184) (UniProt Q9M274).
T7 sequence: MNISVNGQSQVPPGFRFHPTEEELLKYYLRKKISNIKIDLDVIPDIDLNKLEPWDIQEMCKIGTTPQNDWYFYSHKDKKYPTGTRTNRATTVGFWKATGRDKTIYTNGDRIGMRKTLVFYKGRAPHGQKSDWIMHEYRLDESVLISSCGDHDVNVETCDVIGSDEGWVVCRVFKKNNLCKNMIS

The target in a further experiment is T8, GST-NTL8 NAC domain (UniProt Q9XIN7).
T8 sequence: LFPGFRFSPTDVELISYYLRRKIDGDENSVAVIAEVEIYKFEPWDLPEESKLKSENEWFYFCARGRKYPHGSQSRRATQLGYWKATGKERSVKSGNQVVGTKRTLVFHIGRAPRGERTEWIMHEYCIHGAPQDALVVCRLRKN

Another experiment deals with T9, GST-SND1(1-203) (UniProt Q9LPI7).
T9 sequence: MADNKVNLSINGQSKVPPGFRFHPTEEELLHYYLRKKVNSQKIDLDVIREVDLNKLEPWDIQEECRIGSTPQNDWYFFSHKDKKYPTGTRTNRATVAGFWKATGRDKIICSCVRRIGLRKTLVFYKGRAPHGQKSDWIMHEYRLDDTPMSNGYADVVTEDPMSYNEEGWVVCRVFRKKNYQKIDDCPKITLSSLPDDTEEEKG

The target of the next experiment is T10, GST-VND3 NAC domain (UniProt Q9FH59).
T10 sequence: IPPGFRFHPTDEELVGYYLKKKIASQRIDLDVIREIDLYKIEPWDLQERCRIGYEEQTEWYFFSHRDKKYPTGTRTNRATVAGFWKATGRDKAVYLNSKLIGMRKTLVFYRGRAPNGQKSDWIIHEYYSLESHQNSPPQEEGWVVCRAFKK

Another experiment deals with T11, GST-VND7 NAC domain (UniProt Q9C8W9).
T11 sequence: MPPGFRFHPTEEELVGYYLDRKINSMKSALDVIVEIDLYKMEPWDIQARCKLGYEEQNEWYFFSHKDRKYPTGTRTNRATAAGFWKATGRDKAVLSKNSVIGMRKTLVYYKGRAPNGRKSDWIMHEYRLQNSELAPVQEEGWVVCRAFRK

Experiment [2] has as its target T12, GST-VOZ2 (Arabidopsis thaliana) (UniProt Q9SLB9).
T12 sequence: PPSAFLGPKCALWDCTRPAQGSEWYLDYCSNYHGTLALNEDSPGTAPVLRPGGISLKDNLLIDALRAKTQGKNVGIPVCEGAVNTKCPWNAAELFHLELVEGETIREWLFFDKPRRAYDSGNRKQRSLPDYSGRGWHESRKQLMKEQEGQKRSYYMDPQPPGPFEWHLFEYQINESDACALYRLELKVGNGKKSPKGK

With CTAGGTCA, the binding signal is -0.0742 E-score with GST-ANAC092(1-176); -0.0197 E-score in the experiment with GST-NTL6(1-168); -0.0708 E-score with GST-ANAC019 NAC domain; 0.0273 E-score with GST-ANAC055(1-171); -0.0746 E-score with GST-ATAF1 NAC domain; -0.0492 E-score in experiment [1]. Further, the binding signal in the experiment with GST-NAP(1-166) was -0.0446 E-score; in the experiment with GST-NST2(1-184) it was -0.112 E-score; with GST-NTL8 NAC domain, 0.00183 E-score; with GST-SND1(1-203) it was -0.11 E-score; in the experiment with GST-VND3 NAC domain, -0.0329 E-score; with GST-VND7 NAC domain, -0.0622 E-score. The same sequence had a binding signal in experiment [2] of -0.0937 E-score.

For CACGGTCA, the binding signal was -0.0686 E-score in the experiment with GST-ANAC092(1-176); -0.158 E-score with GST-NTL6(1-168); 0.052 E-score with GST-ANAC019 NAC domain; -0.0664 E-score in the experiment with GST-ANAC055(1-171); -0.0753 E-score in the experiment with GST-ATAF1 NAC domain; -0.038 E-score in experiment [1]. Besides, the binding signal with GST-NAP(1-166) is -0.0198 E-score; in the experiment with GST-NST2(1-184), -0.155 E-score; with GST-SND1(1-203) it was 0.00966 E-score; in the experiment with GST-VND3 NAC domain it was -0.059 E-score; with GST-VND7 NAC domain it was 0.00138 E-score; in experiment [2] it was -0.141 E-score.

For ATGCTGAC, the binding signal was -0.0602 E-score with GST-ANAC092(1-176); 0.0493 E-score with GST-NTL6(1-168); -0.149 E-score in the experiment with GST-ANAC019 NAC domain; 0.0377 E-score with GST-ANAC055(1-171); 0.0238 E-score with GST-ATAF1 NAC domain; 3e-05 E-score in [1]. The binding signal is -0.043 E-score with GST-NAP(1-166); -0.0414 E-score with GST-NST2(1-184); -0.0521 E-score with GST-NTL8 NAC domain; 0.0028 E-score with GST-SND1(1-203); -0.0556 E-score with GST-VND3 NAC domain; -0.0548 E-score with GST-VND7 NAC domain. The sequence also came in with a binding signal in [2] of -0.0438 E-score.

As to GCTCTGAC, the binding signal with GST-ANAC092(1-176) was -0.0111 E-score; with GST-NTL6(1-168) it was -0.137 E-score; with GST-ANAC019 NAC domain, -0.013 E-score; with GST-ANAC055(1-171) it was -0.105 E-score; with GST-ATAF1 NAC domain, -0.133 E-score; in [1], -0.166 E-score. Besides, the binding signal is -0.035 E-score in the experiment with GST-NAP(1-166); -0.0721 E-score with GST-NST2(1-184); -0.0778 E-score in the experiment with GST-NTL8 NAC domain; -0.00724 E-score with GST-SND1(1-203); -0.151 E-score with GST-VND3 NAC domain; -0.0672 E-score in the experiment with GST-VND7 NAC domain. The binding signal in experiment [2] is -0.0618 E-score.

ACGGTCAG: the binding signal in the experiment with GST-ANAC092(1-176) was -0.124 E-score; with GST-NTL6(1-168), -0.0829 E-score; with GST-ANAC019 NAC domain it was -0.0652 E-score; in the experiment with GST-ANAC055(1-171), -0.116 E-score; with GST-ATAF1 NAC domain, -0.0805 E-score; in experiment [1] it was -0.129 E-score. For the same sequence, the binding signal with GST-NAP(1-166) was 0.0451 E-score; with GST-NST2(1-184), -0.118 E-score; with GST-SND1(1-203), 0.0355 E-score; with GST-VND3 NAC domain, -0.0879 E-score; in the experiment with GST-VND7 NAC domain it was 0.000735 E-score; in experiment [2], -0.0463 E-score.

On to AGTCAGAC, for which the binding signal is -0.0474 E-score in the experiment with GST-ANAC092(1-176); -0.163 E-score in the experiment with GST-NTL6(1-168); 0.0719 E-score in the experiment with GST-ANAC019 NAC domain; 0.0399 E-score in the experiment with GST-ANAC055(1-171); 0.0392 E-score with GST-ATAF1 NAC domain; -0.122 E-score in experiment [1]. Further, the binding signal is -0.0938 E-score in the experiment with GST-NAP(1-166); -0.151 E-score in the experiment with GST-NST2(1-184); -0.0962 E-score with GST-NTL8 NAC domain; -0.125 E-score with GST-SND1(1-203); 0.0301 E-score with GST-VND3 NAC domain; 0.0119 E-score with GST-VND7 NAC domain. This sequence also had a binding signal in experiment [2] of -0.0972 E-score.
